Assay results reported in the supplement of paper PMC10369915.
The other results are listed elsewhere or left out. Rule as the data show it: active = 3.2 or more and inactive = the rest. The signal is at background level for most entries.

How the values were obtained:
Test in all cases: enrichment score (SH2-bound / input frequency) (ratio); bacterial display of known human phosphotyrosine sites (pTyr-Var adds point mutants) read by sequencing; higher = stronger binding; tyrosines were phosphorylated by kinases first
Conditions in all cases: peptide library: Human pTyr
SHP2 C-SH2 domain E139D = target: SHP2 C-SH2 domain E139D
[1] = target: SHP2 C-SH2 domain wild-type
SHP2 N-SH2 domain L43F = target: SHP2 N-SH2 domain L43F
SHP2 N-SH2 domain T42A = target: SHP2 N-SH2 domain T42A
SHP2 N-SH2 domain T52S = target: SHP2 N-SH2 domain T52S
[2] = target: SHP2 N-SH2 domain wild-type

Measured: enrichment score
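Also: displayed peptides selected on beads carrying the immobilized SH2 domain, with library peptides lacking any tyrosine serving as negative controls.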

B1: KDM1A_HUMAN_135_YA (peptide)
chain: ANLSEDEYASEEERN
inactive: SHP2 C-SH2 domain E139D 1.27 | [1] 1.1 | SHP2 N-SH2 domain L43F 1.24 | SHP2 N-SH2 domain T42A 1.18 | SHP2 N-SH2 domain T52S 1.32 | [2] 1.48

B2: KHDR1_HUMAN_387 (peptide)
chain: YEGYEGYYSQSQGDS
inactive: SHP2 C-SH2 domain E139D 1.49 | [1] 1.01 | SHP2 N-SH2 domain L43F 0.597 | SHP2 N-SH2 domain T42A 0.813 | SHP2 N-SH2 domain T52S 0.772 | [2] 1.05

B3: KCRB_HUMAN_125 (peptide)
chain: GDDLDPNYVLSSRVR
inactive: SHP2 C-SH2 domain E139D 0.643 | [1] 0.622 | SHP2 N-SH2 domain L43F 0.585 | SHP2 N-SH2 domain T42A 0.522 | SHP2 N-SH2 domain T52S 0.681 | [2] 0.588

B4: KHDR1_HUMAN_440_YA (peptide)
chain: GAAREHPYGRAGGGG
inactive: SHP2 C-SH2 domain E139D 1.24 | [1] 1.18 | SHP2 N-SH2 domain L43F 1.05 | SHP2 N-SH2 domain T42A 1.08 | SHP2 N-SH2 domain T52S 1.01 | [2] 1.29

B5: KHSRP_HUMAN_688_YA (peptide)
chain: AARQQAAYAGQTPGP
inactive: SHP2 C-SH2 domain E139D 0.478 | [1] 0.489 | SHP2 N-SH2 domain L43F 0.439 | SHP2 N-SH2 domain T42A 0.545 | SHP2 N-SH2 domain T52S 0.55 | [2] 0.723

B6: ALK_HUMAN_1604 (peptide)
chain: TAPGAGHYEDTILKS
inactive: SHP2 C-SH2 domain E139D 0.714 | [1] 0.608 | SHP2 N-SH2 domain L43F 0.62 | SHP2 N-SH2 domain T42A 0.588 | SHP2 N-SH2 domain T52S 0.706 | [2] 0.64

B7: KIT_HUMAN_730 (peptide)
chain: DMKPGVSYVVPTKAD
inactive: SHP2 C-SH2 domain E139D 0.91 | [1] 0.782 | SHP2 N-SH2 domain L43F 0.636 | SHP2 N-SH2 domain T42A 0.75 | SHP2 N-SH2 domain T52S 0.592 | [2] 0.853

B8: KCND3_HUMAN_136_YA (peptide)
chain: GDCCAEEYKDRKREN
inactive: SHP2 C-SH2 domain E139D 0.748 | [1] 0.711 | SHP2 N-SH2 domain L43F 0.651 | SHP2 N-SH2 domain T42A 0.625 | SHP2 N-SH2 domain T52S 0.881 | [2] 0.6

B9: KIT_HUMAN_553 (peptide)
chain: KYLQKPMYEVQWKVV
inactive: SHP2 C-SH2 domain E139D 1.78 | [1] 1.91 | SHP2 N-SH2 domain L43F 1.6 | SHP2 N-SH2 domain T42A 1.45 | SHP2 N-SH2 domain T52S 1.84 | [2] 2.39

B10: KIRR1_HUMAN_605 (peptide)
chain: MKDPTNGYYNVRAHE
inactive: SHP2 C-SH2 domain E139D 1.31 | [1] 1.17 | SHP2 N-SH2 domain L43F 1.15 | SHP2 N-SH2 domain T42A 1.21 | SHP2 N-SH2 domain T52S 1.35 | [2] 1.33

B11: KIT_HUMAN_547 (peptide)
chain: VMILTYKYLQKPMYE
inactive: SHP2 C-SH2 domain E139D 1.99 | [1] 1.9 | SHP2 N-SH2 domain L43F 1.74 | SHP2 N-SH2 domain T42A 1.73 | SHP2 N-SH2 domain T52S 1.69 | [2] 2.02

B12: ALK_HUMAN_1283_YA (peptide)
chain: DIARASAYRKGGCAM
inactive: SHP2 C-SH2 domain E139D 1.21 | [1] 1.03 | SHP2 N-SH2 domain L43F 0.992 | SHP2 N-SH2 domain T42A 1.03 | SHP2 N-SH2 domain T52S 1.26 | [2] 1.05

B13: KCNJ4_HUMAN_234 (peptide)
chain: YMTQEGEYLPLDQRD
inactive: SHP2 C-SH2 domain E139D 0.646 | [1] 0.548 | SHP2 N-SH2 domain L43F 0.503 | SHP2 N-SH2 domain T42A 0.719 | SHP2 N-SH2 domain T52S 0.567 | [2] 0.603

B14: KIRR1_HUMAN_606_YA (peptide)
chain: KDPTNGAYNVRAHED
inactive: SHP2 C-SH2 domain E139D 0.775 | [1] 0.753 | SHP2 N-SH2 domain L43F 0.643 | SHP2 N-SH2 domain T42A 0.752 | SHP2 N-SH2 domain T52S 0.782 | [2] 0.69

B15: KCNN1_HUMAN_109 (peptide)
chain: KRKRLSDYALIFGMF
inactive: SHP2 C-SH2 domain E139D 0.876 | [1] 0.877 | SHP2 N-SH2 domain L43F 0.697 | SHP2 N-SH2 domain T42A 0.658 | SHP2 N-SH2 domain T52S 0.778 | [2] 0.843

B16: KHSRP_HUMAN_317 (peptide)
chain: GFGDRNEYGSRIGGG
inactive: SHP2 C-SH2 domain E139D 0.633 | [1] 0.498 | SHP2 N-SH2 domain L43F 0.595 | SHP2 N-SH2 domain T42A 0.645 | SHP2 N-SH2 domain T52S 0.58 | [2] 0.566

B17: KHDR1_HUMAN_387_YA (peptide)
chain: AEGAEGAYSQSQGDS
inactive: SHP2 C-SH2 domain E139D 0.762 | [1] 0.612 | SHP2 N-SH2 domain L43F 0.62 | SHP2 N-SH2 domain T42A 0.622 | SHP2 N-SH2 domain T52S 0.626 | [2] 0.778

B18: ALK_HUMAN_1283 (peptide)
chain: DIYRASYYRKGGCAM
inactive: SHP2 C-SH2 domain E139D 1.18 | [1] 1.09 | SHP2 N-SH2 domain L43F 0.888 | SHP2 N-SH2 domain T42A 1.08 | SHP2 N-SH2 domain T52S 1.15 | [2] 1.45
